Consider 82 molecules from ChEMBL document CHEMBL1201862, “PubChem BioAssay data set” (2004).

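1) Cells in 96-well plates. 2) Compound, 48 h, 5 concentrations. 3) Linear interpolation between surrounding doses. 4) Unreached endpoint = highest concentration. The concentration for 50% growth inhibition is given as GI50.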 Active and inactive are the calls of the source. Cut-off read from the data, not from the text of the source: active = GI50 up to about 1.1 µM and inactive = higher.

The test system of this assay is NCI-H322M. Put plainly: DTP human tumour cell line panel, 48 h.
`O=C(NN1C(=O)C(Cl)C1c1cccc(Cl)c1)c1ccccc1O` (configuration not stated): the GI50 is inactive: > 100 µM.
In the case of `Nc1ccn(C2OC(COC(=O)C34CC5CC(CC(C5)C3)C4)C(O)C2O)c(=O)n1` (configuration not stated), the GI50 was inactive: 63.5 µM.
The figure for `Oc1ccc2ccccc2c1/C=C/c1ccc2c(Br)cc(Br)c(O)c2n1` is inactive: 7.96 µM; for `Cc1nnc(S(=O)(=O)c2ccc(/N=N/c3c(N)nc(N)nc3N)cc2)s1` it is inactive: > 100 µM.
The figure for `CCc1nc2cc(F)ccc2[nH]c1=O` is inactive: > 100 µM; for `CC(=O)Nc1sc([N+](=O)[O-])cc1S(=O)(=O)c1ccc(Cl)cc1` it is inactive: 3.75 µM; for `CC(=O)/N=C1\NC(=O)/C(=C/c2ccc(Cl)cc2Cl)N1C` it is inactive: > 100 µM.
With `CC(C)(C)c1cc2c(O)c(c1)C(c1ccccc1)c1cc(C(C)(C)C)cc(c1O)Cc1cc(C(C)(C)C)cc(c1O)C(c1ccccc1)c1cc(C(C)(C)C)cc(c1O)C2` (configuration not stated), the GI50 was inactive: > 100 µM.
Turning to `O=C1CC(Cc2n[nH]c3c2CCCC3)CC(=O)N1`, the GI50 is inactive: > 100 µM.
The figure for `Cc1c(OCCCOc2ccc3c(=O)cc(-c4ccccc4)oc3c2C)ccc2c(=O)cc(-c3ccccc3)oc12` is inactive: > 100 µM; for `O=C(Nc1ccccc1)c1cc(S(=O)(=O)Nc2nc3cccnc3[nH]2)c(SSc2cc(Cl)c(C(=O)Nc3ccccc3)cc2S(=O)(=O)Nc2nc3cccnc3[nH]2)cc1Cl` it is inactive: > 100 µM; for `C/C=C\C(CC(=O)NCCC1CN(C(=O)c2ccccc2)c2ccccc21)CC(=O)OC` (configuration not stated) it is inactive: > 100 µM.
In the case of `S=C1OC2C3C4CC5C3C(O1)C1C5C4C21` (configuration not stated), the GI50 was inactive: > 100 µM.
`O=C(Cc1ccccc1)NS(=O)(=O)c1ccccc1`: the GI50 is inactive: > 100 µM.
On to `O=C1C=CC2(C=C1)C[C@H](NC(=O)OCc1ccccc1)C(=O)O2`, for which the GI50 is inactive: > 59.2 µM.
The figure for `CCCCSC1=N/C(=C\c2ccccc2O)C(Cl)=N1` is inactive: > 100 µM; for `O=C(O)c1ccc(/N=C(\C(=N\c2ccc(C(=O)O)cc2)c2ccccc2)c2ccccc2)cc1` it is inactive: > 100 µM; for `Cc1ccc(-c2n[nH]c(CC#N)n2)cc1` it is inactive: 86.1 µM.
The figure for `Cc1cc(C)c(NC(=S)NC(=O)c2ccccc2)cc1C` is inactive: > 100 µM; for `NC(CCCC(N)P(=O)(O)O)P(=O)(O)O` (configuration not stated) it is inactive: > 100 µM; for `COc1cccc(N2C(=O)C3CC(CC(C)(C)C)c4c([nH]c5ccccc45)C3C2=O)c1` (configuration not stated) it is inactive: > 10 µM.
As for `Cc1ccc(S(=O)(=O)N2CC(CCN)c3ccccc32)cc1` (configuration not stated), the GI50 is inactive: 6.15 µM.
For `Clc1cc(C(c2cc(Cl)sc2Cl)c2cc(Cl)sc2Cl)c(Cl)s1`, the GI50 is inactive: > 100 µM.
The figure for `CC[C@@H]1OC2(C)CC(S(=O)(=O)c3ccccc3)CC1O2` (some centres not stated) is inactive: > 100 µM; for `O=C(CCl)N1CCN(c2ccccc2)CC1` it is inactive: 21.4 µM; for `CCOC(=O)CCC(NC(=O)Cc1ccc(Nc2nc3ccccc3nc2-c2ccccc2)cc1)C(=O)OCC` (configuration not stated) it is inactive: > 100 µM.
The figure for `C[N+](C)(C)CC(=O)N/N=C(/CC1OC(=O)c2ccccc21)c1ccccc1O` (configuration not stated) is inactive: 27.5 µM.
With `CN(C)C(=O)c1nnsc1NN=O`, the GI50 is inactive: > 100 µM.
The figure for `C(=N\c1ccc(-c2nc3ccccc3s2)cc1)/c1cccs1` is inactive: > 100 µM; for `O=C(c1ccc(Cl)cc1)c1ccc(OCCCOc2ccc(C(=O)c3ccc(Cl)cc3)cc2)cc1` it is inactive: > 100 µM; for `COc1ccc2c(=O)c([Se]c3coc4cc(OC)ccc4c3=O)coc2c1` it is inactive: 35.6 µM.
On to `O=C1CS(=O)(=O)C(c2cccc(Oc3ccccc3)c2)N1C1CC1` (configuration not stated), for which the GI50 is inactive: 65.2 µM.
As to `CN(N)C(=O)NCCCl`, the GI50 is inactive: > 100 µM.
The figure for `O=C1/C(=C/c2ccccc2)CCCC1CN1CCCCC1` (configuration not stated) is inactive: 15.6 µM; for `COC(=O)c1ncc2c(=O)[nH]c3ccccc3c2c1C(=O)OC` it is inactive: > 100 µM.
For `CN(C(=O)C12C3C4(C(=O)O)C1(C(=O)N(C)C(C)(C)C)C1C2(C(=O)O)C3(C(=O)N(C)C(C)(C)C)C14C(=O)N(C)C(C)(C)C)C(C)(C)C` (configuration not stated), the GI50 was inactive: > 100 µM.
The figure for `CCNCCCNc1c2ccccc2nc2ccccc12` is active: 0.668 µM; for `COc1cccc(C=C2N=C(C)N(n3c(-c4ccccc4)nc4ccccc4c3=O)C2=O)c1` it is inactive: > 100 µM.
The figure for `CCCCCCCCCC[C@@H](O)[C@H]1CC[C@H]([C@H]2CC[C@H]([C@H](O)CCCCCCCCCC[C@@H]3CC(CC(C)=O)C(=O)O3)O2)O1` (some centres not stated) is inactive: > 40.6 µM; for `Cc1ccc(S(=O)(=O)OC2CC=CC2)cc1` it is inactive: > 100 µM.
The figure for `N=C(N)NS(=O)(=O)c1ccc(NC(=O)c2cccc3c(Nc4ccc(S(=O)(=O)N=C(N)N)cc4)c4ccc(Cl)cc4nc23)cc1` is inactive: > 100 µM.
On to `O=C(Nc1ccccc1)N1N=C(c2ccccc2)C1c1ccccc1` (configuration not stated), for which the GI50 is inactive: 44.5 µM.
The figure for `O=C(O)CSc1nnc(COc2ccc(Cl)cc2)n1-c1ccccc1` is inactive: > 100 µM; for `CCN(CC)c1ccc2cc(C(=O)Nc3ccc(C)cc3)c(=N)oc2c1` it is inactive: > 100 µM; for `COC(=O)C1(C(=O)OC)C/C(C)=C(/C)SCCCS1` it is inactive: > 100 µM.
The figure for `NC(=O)N/N=C(\CC1OC(=O)c2ccccc21)c1ccco1` (configuration not stated) is inactive: > 100 µM; for `C=CC(=C)CCC(Br)C(C)(C)Br` (configuration not stated) it is inactive: > 100 µM; for `CC(C)CS(=O)(=O)/C(=C(\c1ccc(Br)cc1)S(=O)(=O)CC(C)C)c1ccc(Br)cc1` it is inactive: > 100 µM.
The figure for `CSc1c(C(=O)Nc2ccccc2)c(N)nn1-c1ccccc1` is inactive: > 100 µM; for `Cc1ccc(/C=C2\CN(C)CC3C2=NC(=S)NC3c2ccc(C)cc2)cc1` (configuration not stated) it is inactive: > 71.6 µM; for `CCOP12(OCC)NC(=O)OC1(C(F)(F)F)c1ccccc1O2` (configuration not stated) it is inactive: > 100 µM.
Regarding `CCCCCCC1OC23OC1CCC2C(O)CCC3O` (configuration not stated), the GI50 is inactive: > 100 µM.
The figure for `O=C1C2=C(c3ccccc31)C(c1ccc(Cl)cc1)N1C(=O)CCSC1=N2` (configuration not stated) is inactive: > 100 µM; for `C=CCn1c(N)c(C#N)c(C#N)c1CCC` it is inactive: > 100 µM.
In the case of `CC1CN1C(=O)NCCCCCCNC(=O)N1CC1C` (configuration not stated), the GI50 is inactive: > 100 µM.
In the case of `Cc1c2ccncc2c(C)c2c1sc1ccccc12`, the GI50 is inactive: 14.5 µM.
The figure for `CN(C)CCNC(=O)c1cccc2ccc(-c3ccncc3)nc12` is inactive: 4 µM; for `c1ccc(SC(CCCCC(Sc2ccccc2)Sc2ccccc2)Sc2ccccc2)cc1` it is inactive: > 100 µM.
On to `COC(=O)c1cc(C)ccc1/C=C1\Cc2cc(C)c(C)cc2C1=O`, for which the GI50 was inactive: > 100 µM.
Take `CSc1nc(NC2OCC(OC(C)=O)C(OC(C)=O)C2OC(C)=O)c2c(OC(C)=O)c(C)c(=O)oc2n1` (configuration not stated): the GI50 was inactive: > 100 µM.
On to `O=C(N/C(=C\c1ccccc1)C1Nc2ccccc2C(=O)O1)c1ccccc1` (configuration not stated), for which the GI50 is inactive: > 100 µM.
The figure for `CC(C)n1c(=O)c2nn3c(=O)n(C(C)C)c(=O)c3nn2c1=O` is inactive: > 100 µM.
The figure for `C=CC(CCc1ccc(C(=O)OCC)cc1)c1c(N)nc(N)[nH]c1=O` (configuration not stated) is inactive: 75.2 µM; for `C1CCCCC2(CCCCCCCCC3(CCC1)OCCO3)OCCO2` it is inactive: > 100 µM.
On to `CC(=O)N1C(CCc2ccccc2)CC(C)(C=O)C1Cc1ccc(O[Si](C(C)C)(C(C)C)C(C)C)cc1` (configuration not stated), for which the GI50 was inactive: 9.77 µM.
The figure for `CC1(C)O[C@@H](CCl)C[C@@H](C#N)O1` is inactive: > 100 µM; for `Nc1nc(N)c2ncn(-c3ccc(Cl)cc3)c2n1` it is inactive: 57.3 µM.
The figure for `Cc1ccnc2[nH]c3ccccc3c(=O)c12` is inactive: 40.3 µM; for `Nc1ccc(Nc2nc(F)nc(-c3c4ccccc4c4n3CCS4)n2)cc1` it is inactive: 32.1 µM; for `NS(=O)(=O)c1cc2c(cc1Cl)N=C(CCC(=O)O)NS2(=O)=O` it is inactive: > 100 µM.
As for `CN(C)c1cccc(NC2=NCCO2)c1`, the GI50 is inactive: 56.9 µM.
On to `O=C1/C(=C/c2cccc(Br)c2)CSC/C1=C\c1cccc(Br)c1`, for which the GI50 is inactive: 9.51 µM.
For the molecule `N#Cc1c(-c2ccc([N+](=O)[O-])cc2)c(C#N)c(=O)n(NS(=O)(=O)c2ccccc2)c1S`, the GI50 was inactive: 71.4 µM.
The figure for `CC1(C)CC2=C(SC3C=CC=CC3N2)C(=O)C1C(=O)C(N)=O` (configuration not stated) is inactive: > 100 µM.
The figure for `CNC(=O)OCc1c(COC(=O)NC)c(-c2ccc(Cl)c(Cl)c2)n2c1SCC2` is inactive: 9.2 µM; for `O=S(=O)(O)c1cc(/N=[N+](\[O-])c2ccc(/N=N/c3ccccc3)cc2S(=O)(=O)O)ccc1/C=C/c1ccc(/N=[N+](\[O-])c2ccc(/N=N/c3ccccc3)cc2S(=O)(=O)O)cc1S(=O)(=O)O` it is inactive: > 100 µM.
Consider `Cc1ccc2nc(-c3ccc(NC(=O)c4ccc(N)cc4)c(S(=O)(=O)O)c3)sc2c1`, for which the GI50 is inactive: > 100 µM.
`C=C(C)C(O)C(O)C[C@@H](C)C1CC[C@]23C[C@]12CCC1[C@@]2(C)CCC(OC(C)=O)C(C)(C)C2CC(OC2OC(CO)C(O)C(O)C2O)[C@]13C` (some centres not stated): the GI50 is inactive: 21.8 µM.
Regarding `CC(=O)OCC1OC(OC2CC3C(C)(C)C(OC(C)=O)CC[C@]3(C)C3CCC45CC4(CC[C@H]5C(C)CC(O)C4OC4(C)C)[C@]23C)C(O)C(O)C1O` (some centres not stated), the GI50 was active: 0.906 µM.
The figure for `C=Cc1c(C)c(O)cc2c1-c1ccc(O)c(C)c1CC2` is inactive: 15.9 µM.
The figure for `Nc1nc(O)c(Br)c(-c2cccc([N+](=O)[O-])c2)n1` is inactive: > 100 µM.
Turning to `O=C1C2C3C=CC(C2C(=O)N1CN1CCSCC1)C1C2C(=O)N(CN4CCSCC4)C(=O)C2C31` (configuration not stated), the GI50 is inactive: > 100 µM.

One may read the GI50 as the concentration that inhibits growth by half.
